{
  "source": "patent US20140178332A1",
  "about": "(published 2014)",
  "key": {"[1]": {"biological_target": "T1, recombinant purified human IL-12 p70 (human, UniProt P29459 23-219)", "T1 sequence 1": "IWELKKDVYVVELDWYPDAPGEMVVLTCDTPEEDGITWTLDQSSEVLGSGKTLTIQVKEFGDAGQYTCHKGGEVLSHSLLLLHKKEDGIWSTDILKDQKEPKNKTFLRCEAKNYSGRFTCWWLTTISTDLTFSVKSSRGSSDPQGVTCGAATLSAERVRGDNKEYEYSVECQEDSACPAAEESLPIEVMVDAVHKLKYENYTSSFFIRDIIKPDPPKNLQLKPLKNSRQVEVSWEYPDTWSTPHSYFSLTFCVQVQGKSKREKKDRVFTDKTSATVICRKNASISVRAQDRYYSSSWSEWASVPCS", "T1 sequence 2": "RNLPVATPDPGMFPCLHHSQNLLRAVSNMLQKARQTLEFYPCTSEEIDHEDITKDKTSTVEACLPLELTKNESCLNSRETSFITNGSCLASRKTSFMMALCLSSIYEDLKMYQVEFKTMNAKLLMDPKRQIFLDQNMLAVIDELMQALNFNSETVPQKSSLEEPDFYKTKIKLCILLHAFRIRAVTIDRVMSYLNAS", "assay": "cell-based or functional assay"}, "[2]": {"biological_target": "T1, recombinant purified human IL-12 p70", "assay": "SPR (BIAcore) as in Example 1.1.B, human IL-12p70", "description": "Approximately 5000 RU of goat anti-mouse IgG, (Fcγ), fragment specific polyclonal antibody (Pierce Biotechnology Inc, Rockford, Ill.) diluted in 10 mM sodium acetate (pH 4.5) was directly immobilized across a CM5 research grade biosensor chip using a standard amine coupling kit according to manufacturer's instructions and procedures at 25 μg/ml. Unreacted moieties on the biosensor surface were blocked with ethanolamine. Modified carboxymethyl dextran surface in flowcell 2 and 4 was used as a reaction surface. Unmodified carboxymethyl dextran without goat anti-mouse IgG in flow cell 1 and 3 was used as the reference surface. For kinetic analysis, rate equations derived from the 1:1 Langmuir binding model were fitted simultaneously to association and dissociation phases of all eight injections (using global fit analysis) with the use of Biaevaluation 4.0.1 software. Purified antibodies were diluted in HEPES-buffered saline for capture across goat anti-mouse IgG specific reaction surfaces. Mouse antibodies to be captured as a ligand (25 μg/ml) were injected over reaction matrices at a flow rate of 5 μl/min. The association and dissociation rate constants, kₒₙ (unit M⁻¹ s⁻¹) and koff (unit s⁻¹) were determined under a continuous flow rate of 25 μl/min. Rate constants were derived by making kinetic binding measurements at ten different antigen concentrations ranging from 10-200 nM. The equilibrium dissociation constant (unit M) of the reaction between mouse antibodies and recombinant purified human IL-12 p70 or recombinant purified human IL-12 p40 was then calculated from the kinetic rate constants by the following formula: KD=koff/kₒₙ. Binding is recorded as a function of time and kinetic rate constants are calculated. In this assay, on-rates as fast as 10⁶M⁻¹ s⁻¹ and off-rates as slow as 10⁻⁶ can be measured. […]"}, "[3]": {"biological_target": "T2, recombinant purified cyno IL-12 p70 (cynomolgus monkey)", "T2 chain 1": "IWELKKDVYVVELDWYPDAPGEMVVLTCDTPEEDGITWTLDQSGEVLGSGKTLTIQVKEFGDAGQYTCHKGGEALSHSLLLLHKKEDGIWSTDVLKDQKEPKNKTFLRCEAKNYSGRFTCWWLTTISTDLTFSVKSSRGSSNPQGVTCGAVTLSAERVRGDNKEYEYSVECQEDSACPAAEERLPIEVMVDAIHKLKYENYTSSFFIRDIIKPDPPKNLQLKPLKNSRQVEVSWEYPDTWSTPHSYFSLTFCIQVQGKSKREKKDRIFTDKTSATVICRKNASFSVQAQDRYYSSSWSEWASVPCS", "T2 chain 2": "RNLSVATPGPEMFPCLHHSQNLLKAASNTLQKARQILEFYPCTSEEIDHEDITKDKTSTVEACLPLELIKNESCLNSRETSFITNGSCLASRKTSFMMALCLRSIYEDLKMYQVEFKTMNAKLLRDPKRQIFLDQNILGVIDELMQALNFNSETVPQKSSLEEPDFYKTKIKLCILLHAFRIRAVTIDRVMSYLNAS", "assay": "cell-based or functional assay"}},
  "data": [
    {"binder": "anti-IL-12p40 humanized antibody 1D4.9 (antibody, human IgG1, kappa, Back-mutated CDR-grafted antibody; COS cells) heavy: EVTLRESGPALVKPTQTLTLTCTFSGFSLRKSVMGVSWIRQPPGKALEWLAHIYWDDDKYYNPSLKSRLTISKDTSKNQVVLTMTNMDPVDTATYYCTRRGIRSAMDYWGQGTTVTVSSASTKGPSVFPLAPSSKSTSGGTAALGCLVKDYFPEPVTVSWNSGALTSGVHTFPAVLQSSGLYSLSSVVTVPSSSLGTQTYICNVNHKPSNTKVDKKV[skipping human IgG1 Fc with changes] light: DIVMTQSPDSLAVSLGERATINCKASQSVSNDVAWYQQKPGQPPKLLIYYASNRYTGVPDRFSGSGYGTDFTLTISSLQAEDVAVYYCQQDYNSPWTFGGGTKVEIKRTVAAPSVFIFPPSDEQLKSGTASVVCLLNNFYPREAKVQWKVDNALQSGNSQESVTEQDSKDSTYSLSSTLTLSKADYEKHKVYACEVTHQGLSSPVTKSFNRGEC", "values": [
      {"measurement": "Av. IC50 (nM) huIL-12, PHA blast assay", "setting": "[1]", "value": 0.035, "unit": "nM"},
      {"measurement": "Kd", "setting": "[2]", "value": "< 0.01", "unit": "nM"},
      {"measurement": "kon", "setting": "[2]", "value": 530000, "unit": "M⁻¹ s⁻¹"}
    ]},
    {"binder": "anti-IL-12p40 humanized antibody 1D4.7 (antibody, human IgG1, kappa, Back-mutated CDR-grafted antibody; COS cells) heavy: EVTLRESGPALVKPTQTLTLTCTFSGFSLRKSVMGVSWIRQPPGKALEWLAHIYWDDDKYYNPSLKSRLTISKDTSKNQVVLTMTNMDPVDTATYYCTRRGIRSAMDYWGQGTTVTVSSASTKGPSVFPLAPSSKSTSGGTAALGCLVKDYFPEPVTVSWNSGALTSGVHTFPAVLQSSGLYSLSSVVTVPSSSLGTQTYICNVNHKPSNTKVDKKV[skipping human IgG1 Fc with changes] light: DVVMTQSPDSLAVSLGERATINCKASQSVSNDVAWYQQKPGQPPKLLIYYASNRYTGVPDRFSGSGYGTDFTLTISSLQAEDVAVYYCQQDYNSPWTFGGGTKVEIKRTVAAPSVFIFPPSDEQLKSGTASVVCLLNNFYPREAKVQWKVDNALQSGNSQESVTEQDSKDSTYSLSSTLTLSKADYEKHKVYACEVTHQGLSSPVTKSFNRGEC", "values": [
      {"measurement": "Av. IC50 (nM) cyno IL-12, PHA blast assay", "setting": "[3]", "value": 0.031, "unit": "nM"},
      {"measurement": "Av. IC50 (nM) huIL-12, PHA blast assay", "setting": "[1]", "value": 0.014, "unit": "nM"},
      {"measurement": "Kd", "setting": "[2]", "value": "< 0.01", "unit": "nM"},
      {"measurement": "koff", "setting": "[2]", "value": "< 1e-05", "unit": "s⁻¹"},
      {"measurement": "kon", "setting": "[2]", "value": "> 100000", "unit": "M⁻¹ s⁻¹"}
    ]}
  ]
}
